Measured values: PubChem BioAssay AID504339 (National Center for Advancing Translational Sciences (NCATS), 2011)
Hit rate of the full screen: of about 390,000 compounds, about 17,000 (4.4%) were called active. Inconclusive results, whose numbers are uncertain, are shown with a selection of clear calls. Calls come from the whole dose curve; as a rule, active = well fitted inhibition curve with a large enough effect; inconclusive = small, poorly fitted or top-dose-only effect; inactive = no such curve, though single readings can be large or run the other way. Where the call is inconclusive, the potency comes from a doubtful curve fit.
% is set by controls: 0 for no effect and ±100 for the full control effect; potency is the fitted concentration of half-maximal effect; tags give direction and shape of the fitted curve.
Note: nearly all actives have a fitted effect of over 50% in size.

These compounds were tested against Lysine-specific demethylase 4A (Homo sapiens) (UniProt O75164) (assay: qHTS Assay for Inhibitors of JMJD2A-Tudor Domain). Conditions: AlphaScreen JMJD2A-Tudor / H3K4me3 peptide binding; activity change, negative = inhibition: at 114 µM (top of the series).
UniProt O75164, sequence (O75164 whole entry, looked up, the tested form may be a part): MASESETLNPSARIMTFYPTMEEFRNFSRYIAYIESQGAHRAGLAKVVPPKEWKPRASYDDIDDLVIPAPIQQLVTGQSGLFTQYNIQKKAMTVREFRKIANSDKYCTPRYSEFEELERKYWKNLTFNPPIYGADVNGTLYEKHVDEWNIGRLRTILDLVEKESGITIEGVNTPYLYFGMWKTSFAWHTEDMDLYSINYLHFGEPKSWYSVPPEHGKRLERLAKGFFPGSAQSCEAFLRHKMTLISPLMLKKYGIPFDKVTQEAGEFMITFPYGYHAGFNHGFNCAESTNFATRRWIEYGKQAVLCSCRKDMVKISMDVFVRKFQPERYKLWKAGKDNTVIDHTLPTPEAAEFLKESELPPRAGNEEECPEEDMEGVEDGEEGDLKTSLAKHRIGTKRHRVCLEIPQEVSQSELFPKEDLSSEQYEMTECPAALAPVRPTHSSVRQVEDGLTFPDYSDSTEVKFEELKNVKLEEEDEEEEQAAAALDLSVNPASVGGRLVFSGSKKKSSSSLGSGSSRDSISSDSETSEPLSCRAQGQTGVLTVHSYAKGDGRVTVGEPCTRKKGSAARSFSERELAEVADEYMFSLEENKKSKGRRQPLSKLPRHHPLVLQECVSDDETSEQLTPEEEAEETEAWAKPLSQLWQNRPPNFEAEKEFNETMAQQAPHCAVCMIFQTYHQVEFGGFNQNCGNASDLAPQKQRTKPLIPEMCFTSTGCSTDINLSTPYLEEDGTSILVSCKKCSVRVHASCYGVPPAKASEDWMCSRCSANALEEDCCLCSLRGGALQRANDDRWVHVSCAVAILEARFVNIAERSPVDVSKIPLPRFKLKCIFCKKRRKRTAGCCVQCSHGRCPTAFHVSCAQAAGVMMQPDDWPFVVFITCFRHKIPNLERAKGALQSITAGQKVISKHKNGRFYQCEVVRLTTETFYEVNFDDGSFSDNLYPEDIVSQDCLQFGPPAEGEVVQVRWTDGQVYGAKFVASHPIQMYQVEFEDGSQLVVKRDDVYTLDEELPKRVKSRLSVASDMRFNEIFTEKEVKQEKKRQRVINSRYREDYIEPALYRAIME
CCOc1ccc(N2CC(C(=O)Nc3nnc(CC)s3)CC2=O)cc1 (stereo not given) was tested, and the “activity change, negative = inhibition” value was inactive: -3.89%. In the case of Cc1cc(C(=O)N/N=C/C=C/c2ccccc2[N+](=O)[O-])c(C)o1, the Potency is reported as inconclusive: 17.8 µM [inhibitor, full curve]. COc1ccc(-c2cc(=O)n(-c3ccc([N+](=O)[O-])cc3)[nH]2)cc1 was tested, and the Potency was active: 56.2 µM. For O=C(NC1CCCC1)c1ccc2c(c1)N(Cc1ccccc1F)C(=O)c1ccccc1S2, the “activity change, negative = inhibition” value was inactive: -6.09%. With CCOc1ccccc1N(C)C(=O)CCS(=O)(=O)c1ccc2c(c1)NC(=O)C(C)S2 (stereo not given) the Potency was inconclusive: 22.4 µM [inhibitor, full curve]. For Clc1cccc(-c2nnc(SCc3nc4ccccc4[nH]3)n2Cc2ccco2)c1, the Potency was inconclusive: 79.4 µM [inhibitor, partial curve]. CCCCn1c(-c2ccc(C)cc2)c(C)n2c3c(=O)n(C)c(=O)n(C)c3nc12 was tested, and the “activity change, negative = inhibition” value was inactive: -32.3%. O=C(Nc1ccc2nc(-c3ccco3)c(-c3ccco3)nc2c1)N1CCN(c2ccccn2)CC1 was tested, and the Potency was inconclusive: 63.1 µM [inhibitor, partial curve, poor fit]. With O=C1/C(=C/c2cccs2)N=C(c2cccs2)N1Nc1ccccc1 the Potency was inconclusive: 31.6 µM [inhibitor, partial curve]. CC(=O)Nc1ccc(NC(=O)Cn2c(CC(=O)N3CCCC3)nc3ccccc32)cc1 was tested, and the Potency was inconclusive: 20 µM [inhibitor, full curve, poor fit]. In the case of COc1c(C)cccc1C(=O)Nc1ccc(CN2CCOCC2)cc1, the Potency is reported as inconclusive: 79.4 µM [inhibitor, single point]. For Cc1cccn2c(=O)nc(SCC(=O)N3CCCCC3)nc12, the “activity change, negative = inhibition” value was inactive: 0.328%. COc1ccc(C2/C(=C(\O)c3ccc4c(c3)OCCO4)C(=O)C(=O)N2CCCN(C)C)c(OC)c1 (stereo not given) was tested, and the Potency was inconclusive: 89.1 µM [inhibitor, single point]. With CC(C)CC(=O)Nc1c(C(=O)N2CCN(c3ccccc3F)CC2)oc2ccccc12 the Potency was inconclusive: 31.6 µM [inhibitor, full curve, poor fit]. CCOC(=O)c1c(CSc2ccsc2)n(C)c2cc(Br)c(O)c(CN(C)C)c12 was tested, and the Potency was inconclusive: 50.1 µM [inhibitor, partial curve]. In the case of COC(=O)C1=C(C)NC2=C(C(=O)c3ccccc32)C1c1cccc(OC)c1 (stereo not given), the “activity change, negative = inhibition” value is reported as inactive: -22.9%. For COc1ccc(CC(=O)Nc2cccc(-c3nnc(-c4ccccc4)o3)c2)cc1OC, the Potency was inconclusive: 44.7 µM [inhibitor, partial curve]. For C#CCOCCOCCOCCNc1nc(N2CCN(C(=O)CCCCCCCCCCNC(=O)[C@H](CO)n3cc(CCCSC)nn3)CC2)nc(N2CCN(C(=O)CCCCCCCCCCNC(=O)[C@H](CCCCN)n3cc(CCO)nn3)CC2)n1, the Potency was active: 56.2 µM. For O=C(NN=Cc1ccccc1O)NN=Cc1ccccc1O, the Potency was inconclusive: 44.7 µM [inhibitor, full curve, poor fit]. In the case of O=C(O)c1cccc(Nc2nc(-c3cccnc3)nc3ccccc23)c1, the Potency is reported as inconclusive: 70.8 µM [inhibitor, single point]. With O=C(Nc1nc(-c2ccco2)c(-c2ccco2)s1)c1c(F)cccc1Cl the Potency was active: 50.1 µM. With COc1ccc(C2/C(=C(/O)c3ccccc3)C(=O)C(=O)N2c2ccccn2)cc1 (stereo not given) the Potency was inconclusive: 79.4 µM [inhibitor, partial curve]. For Cc1cccc(N2CCN(c3ccc(C(=O)O)cc3NC(=O)c3ccccc3F)CC2C)c1 (stereo not given), the Potency was active: 56.2 µM. O=C(NC(=S)Nc1ccccc1)c1cc(-c2ccccc2)nc2ccccc12 was tested, and the Potency was inconclusive: 56.2 µM [inhibitor, partial curve]. For COCCCNC(=S)N/N=C/c1ccc(O)cc1O, the Potency was active: 50.1 µM. With COc1ccc2c3n(nc2c1)CCN=C3c1cc(Cl)c(N)c(Cl)c1 the Potency was inconclusive: 63.1 µM [inhibitor, partial curve, poor fit]. For Cc1cc(O)c(S(=O)(=O)c2ccccc2)c(C)c1NS(=O)(=O)c1ccccc1, the “activity change, negative = inhibition” value was inactive: -20.1%. CCNC(=S)N1CCc2cc(OC)c(OC)cc2C1COc1ccc(OC)cc1 (stereo not given) was tested, and the Potency was inconclusive: 79.4 µM [inhibitor, partial curve]. With COc1ccc(OC)c(/C=N/NC(=O)CCc2ccc(O)c(O)c2)c1 the Potency was inconclusive: 25.1 µM [inhibitor, single point]. With O=C1c2[nH]nc(-c3ccccc3O)c2C(c2ccc(F)cc2)N1Cc1ccco1 (stereo not given) the Potency was inconclusive: 56.2 µM [inhibitor, partial curve]. O=C1CC(N2CCN(c3ccc(O)cc3)CC2)C(=O)N1c1ccc2c(c1)OCO2 (stereo not given) was tested, and the Potency was inconclusive: 70.8 µM [inhibitor, single point]. With CSCCC(NS(=O)(=O)c1ccc(Cl)cc1)C(=O)O (stereo not given) the “activity change, negative = inhibition” value was inactive: -19.3%. With O=C(Nc1nnc(SCc2ccc(F)cc2)s1)c1ccccn1 the Potency was active: 28.2 µM. In the case of Cc1cccc(C(=O)c2c(N)sc3c2CCCC3)c1, the Potency is reported as inconclusive: 79.4 µM [inhibitor, partial curve]. With Clc1ccc(CSc2nc3ncccc3[nH]2)cc1 the “activity change, negative = inhibition” value was inactive: -8%. In the case of N#Cc1c2c(c(NCc3cccnc3)n3c1nc1ccccc13)CCC2, the Potency is reported as inconclusive: 56.2 µM [inhibitor, partial curve]. With CCc1ccc(S(=O)(=O)c2nnn3c2nc(N2CCCC(C)C2)c2cc(Cl)ccc23)cc1 (stereo not given) the “activity change, negative = inhibition” value was inactive: 5.09%. In the case of COc1ccc(OC)c(CNC(=O)C2COc3ccccc3C2)c1 (stereo not given), the “activity change, negative = inhibition” value is reported as inactive: -6.39%. With CN(Cc1ccccc1)Cc1c(O)ccc2ccccc12 the Potency was active: 3.98 µM. For O=C(Nc1ccc(O)c2ncccc12)c1ccccc1F, the Potency was active: 28.2 µM. For O=C(CSC1=NNC(c2ccccn2)S1)Nc1ccc(C(F)(F)F)cc1 (stereo not given), the Potency was active: 39.8 µM. In the case of N#Cc1ccc(NCC(=O)Nc2ccc(S(=O)(=O)N3CCCCC3)cc2)cc1, the “activity change, negative = inhibition” value is reported as inactive: -16.4%. In the case of Cc1cc(OCc2nc3ccccc3s2)ccc1N, the Potency is reported as inconclusive: 44.7 µM [inhibitor, partial curve]. For COCCNC(=O)c1ccc2c(=O)n(Cc3ccco3)c(SCC(=O)Nc3ccc(OC)cc3OC)nc2c1, the Potency was active: 56.2 µM. For CC(C)(C)C1CCc2c(sc(NC(=O)c3ccncc3)c2C(=O)Nc2ccccc2Cl)C1 (stereo not given), the Potency was inconclusive: 89.1 µM [inhibitor, partial curve].
